Results taken from PubChem BioAssay AID488969 (Vanderbilt High Throughput Screening Facility, 2010).
The full ranking holds about 110,000 compounds; the median of “z-score” is about -0.1, and the highest 2% start at about 2. The list shows a part of the results. Active and inactive are the calls of the source.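 Rule for the calls: active = z-score in the third read window above 3 or below -3; inactive = the rest.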

Each compound was assayed against Metabotropic glutamate receptor 8 (Rattus norvegicus) (UniProt P70579) (assay: mGluR8 Gi/Go-coupled signaling modulation – cell-based, rat, thallium flux, HTS, primary screen (AID 488969)). Conditions: HEK293 rat mGluR8, GIRK (G protein-gated inwardly rectifying potassium channel) thallium flux, FluoZin2; at 10 µM; stronger effect = higher value; submaximal glutamate (EC20) added with thallium.
Chain of UniProt P70579 (P70579 whole entry, looked up): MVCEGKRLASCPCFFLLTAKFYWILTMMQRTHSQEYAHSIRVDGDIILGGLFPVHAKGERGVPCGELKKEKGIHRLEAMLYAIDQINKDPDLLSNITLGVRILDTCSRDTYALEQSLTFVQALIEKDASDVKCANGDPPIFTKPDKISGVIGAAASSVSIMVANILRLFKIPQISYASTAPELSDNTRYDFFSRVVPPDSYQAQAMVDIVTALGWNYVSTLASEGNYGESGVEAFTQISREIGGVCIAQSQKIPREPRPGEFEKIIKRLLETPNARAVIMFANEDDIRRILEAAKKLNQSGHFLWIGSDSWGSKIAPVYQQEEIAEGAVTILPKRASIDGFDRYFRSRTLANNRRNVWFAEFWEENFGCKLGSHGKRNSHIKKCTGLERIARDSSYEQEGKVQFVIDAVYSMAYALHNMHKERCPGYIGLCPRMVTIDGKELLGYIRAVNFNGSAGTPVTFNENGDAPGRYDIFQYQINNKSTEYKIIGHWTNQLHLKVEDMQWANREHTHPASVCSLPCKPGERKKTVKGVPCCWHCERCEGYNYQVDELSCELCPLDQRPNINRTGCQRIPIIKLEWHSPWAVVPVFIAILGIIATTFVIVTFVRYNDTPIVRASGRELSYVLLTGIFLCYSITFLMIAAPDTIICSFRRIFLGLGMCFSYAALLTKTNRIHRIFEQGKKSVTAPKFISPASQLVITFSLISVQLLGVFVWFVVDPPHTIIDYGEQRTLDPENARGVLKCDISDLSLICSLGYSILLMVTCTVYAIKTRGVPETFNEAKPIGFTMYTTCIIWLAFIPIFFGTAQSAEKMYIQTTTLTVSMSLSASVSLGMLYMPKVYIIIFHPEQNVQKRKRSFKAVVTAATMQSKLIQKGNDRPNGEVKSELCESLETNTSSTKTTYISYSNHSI

SMILES	z-score
O=C(NCC(c1cccnc1)N1CCOCC1)c1cccc(Cl)c1 (stereo not given)	0.257
C/C(=C\C(=O)c1ccc(Cl)cc1)NCc1ccc2c(c1)OCO2	-0.039
Cc1cccc(NC(=S)NNC(=O)c2csc3c2CCC(C)C3)c1 (stereo not given)	active: 9.39
NS(=O)(=O)c1cccn1-c1ncc(C(F)(F)F)cc1Cl	-0.223
C#CCOc1ccc(/C=N/O)cc1Cl	-1.42
COC(=O)c1sc(NC(=O)CSc2nnnn2-c2cccc(OC)c2)nc1C	-0.138
CCn1c(C)cc(/C=C2\NC(=O)N(Cc3ccc(Cl)cc3)C2=O)c1C	-0.173
O=C(NC1CCCC1)C1CCCN(S(=O)(=O)c2cnc[nH]2)C1 (stereo not given)	-0.0267
Cc1cccc(NC(=O)C23CCC(C)(/C(=N/O)C2)C3(C)C)c1 (stereo not given)	1.48
Clc1ccc2c(N/N=C/c3cccc(Br)c3)ccnc2c1	-0.261
CCOCCCn1c(=NC(=O)c2ccc(OC)c(OC)c2)c(C#N)cc2c(=O)n3cccc(C)c3nc21	-0.362
O=C(COc1nc2ccccc2nc1N1CCOCC1)Nc1ccc(S(=O)(=O)N2CCCC2)cc1	0.134
Cc1ccc(S(=O)(=O)/N=C(/Nc2ccccn2)c2ccc(Cl)cc2)cc1	0.186
Cc1ccc(N2CC(C(=O)Nc3nnc(SCC(=O)Nc4cc(C)on4)s3)CC2=O)cc1 (stereo not given)	-0.268
O=C(NCc1ccc(Cl)cc1)NCC(F)(F)F	0.0319
OCCNCCOc1ccc(Cl)c(Cl)c1	0.119
Cc1sc2nc(CSc3ccccc3)nc(NCCN(C)C)c2c1C	0.377
COc1ccc(NC(=S)Nc2ccccc2F)c(OC)c1	0.102
Cc1ccc2nc(NC(=O)CCNS(=O)(=O)c3ccc(Br)s3)sc2c1	-0.0309
CCn1c2ccccc2c2cc(NC(=O)C(C)C)ccc21	-0.299
Cc1ccc(N/C=C/C(=O)c2ccccc2)cc1C	0.53
Cn1c(-c2ccc(F)cc2)cnc1SCC(=O)Nc1ccccc1N1CCOCC1	-2.22
NC1=NS(=O)(=O)NC1c1cccc(Cl)c1 (stereo not given)	-0.0993
Cc1ccc(N2C(=O)[C@@H]3C(C(=O)C(c4ccccc4)c4ccccc4)=NN[C@@H]3C2=O)cc1	-0.188
CC(NC(=O)c1ccco1)C1CCCO1 (stereo not given)	-0.19
Cc1cccc(NC(=O)CN2C(=O)S/C(=C\C(=O)Nc3ccc(Cl)cc3)C2=O)c1	-0.144
COC(=O)c1ccc(C2C3=C(Nc4nnnn42)c2ccccc2OC3)cc1 (stereo not given)	-0.413
O=C(N/N=C\c1ccc(O)c([N+](=O)[O-])c1)c1ccccc1-n1cccc1	0.122
Cc1ccc(NC(=O)C(=O)c2cn(CC(=O)N3CCCCC3)c3ccccc23)cc1	0.174
O=C1/C(=C\c2cccnc2)CN(Cc2ccccc2)C/C1=C\c1cccnc1	-0.063
